According to paper PMC7819943, “Rice protein-binding microarrays: a tool to detect cis-acting elements near promoter regions in rice”:
Some of the results follow.

These sequences were tested against T1, OsWOX13 (Oryza sativa, UniProt Q5QMM3 1-267) (assay: protein-binding microarray (RPBM); PBS, 2% BSA, 51.3 ng/ul salmon testes DNA, 50 uM zinc acetate, 200 nM TF, 25 C, 1 h; high values mean tight binding). Conditions: protein: recombinant; tags: N-terminal polyhistidine and DsRed monomer fusion (pET32a); label: CyDye5-dUTP incorporated in the synthesized complementary strand; 3' TTTTT single-stranded linker to array surface; dsDNA, one strand shown.
T1 sequence: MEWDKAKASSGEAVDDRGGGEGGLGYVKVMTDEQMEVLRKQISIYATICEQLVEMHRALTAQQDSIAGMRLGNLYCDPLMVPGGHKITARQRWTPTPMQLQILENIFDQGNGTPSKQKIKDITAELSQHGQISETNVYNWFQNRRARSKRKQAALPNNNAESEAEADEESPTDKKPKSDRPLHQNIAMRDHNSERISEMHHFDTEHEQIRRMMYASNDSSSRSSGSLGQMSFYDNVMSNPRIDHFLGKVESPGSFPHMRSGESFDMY
In short: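 Per-feature fluorescence intensity (arbitrary units), read on an Axon 4000B scanner, is the binding signal. Transcription factors carrying an N-terminal polyhistidine tag and DsRed fusion were expressed in E. coli BL21-CodonPlus and purified on Ni–NTA. A custom Agilent array, made double-stranded by primer extension with Cy5-dUTP and blocked with 2% BSA, was incubated with 200 nM protein in PBS, 2% BSA, salmon testes DNA and 50 µM zinc acetate at 25 °C for 1 h and then washed.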
In the case of “TGCAAATTTGGATCAATGACATATAAGGGAAAAGCTAATTCGGAGTCACCTAGTGCAG”, the binding signal is reported as 10700 fluorescence intensity (a.u.).
With “GGCAGGGAGAAATTGAATATAATCAAAGAACAGTACAACGCGGAGTCACCTAGTGCAG” the binding signal was 4980 fluorescence intensity (a.u.).
In the case of “TTACAACAATTACATTTATGAATGCTATACTAGGCTTATGCGGAGTCACCTAGTGCAG”, the binding signal is reported as 3330 fluorescence intensity (a.u.).
“AATTAATTTTAATCCCAATTCTCTTATATAGTGTGTATTACGGAGTCACCTAGTGCAG” was tested, and the binding signal was 14500 fluorescence intensity (a.u.).
For “ATATTATCTTGTTATTAGTAATTTGATATGAGACGGTGCGCGGAGTCACCTAGTGCAG”, the binding signal was 3790 fluorescence intensity (a.u.).
With “ATTCCTGGTTGATTTAAAATCATTCCACTGTTGCTTCTCACGGAGTCACCTAGTGCAG” the binding signal was 13500 fluorescence intensity (a.u.).
With “ATGTCTAACAGCTGATTTGTATAATCTCGGCTGGGCTGTCCGGAGTCACCTAGTGCAG” the binding signal was 13400 fluorescence intensity (a.u.).
With “GAGTAATTAAATTGAGAAATTATGATGGAGGACGAATATGCGGAGTCACCTAGTGCAG” the binding signal was 28300 fluorescence intensity (a.u.).
“CATTTTGACTGACGTGAATGGTGTATTTAGTTGTGGATATCGGAGTCACCTAGTGCAG” was tested, and the binding signal was 22300 fluorescence intensity (a.u.).
For “GATATTTTATGACCGGTTTTGATTAGTTAAGGGATGCGGGCGGAGTCACCTAGTGCAG”, the binding signal was 3910 fluorescence intensity (a.u.).
“TTTTCGTTTTAGGATTTATAAATTAATTAATAAATTACATCGGAGTCACCTAGTGCAG” was tested, and the binding signal was 4300 fluorescence intensity (a.u.).
“ATAATTTGTAATCCTGTAAAGAATTAGCAGAAATTCTCATCGGAGTCACCTAGTGCAG” was tested, and the binding signal was 7580 fluorescence intensity (a.u.).
“GGTAATATTTTGATTAAATTTGACTAAATTTTGTTTAAAACGGAGTCACCTAGTGCAG” was tested, and the binding signal was 11800 fluorescence intensity (a.u.).
“TCGATGATGATTGATGGATTGATTTTGAGAACTCGAAGGACGGAGTCACCTAGTGCAG” was tested, and the binding signal was 44700 fluorescence intensity (a.u.).
“GTTTTGTGTTAAATTTATTGTTAAATCTGTAGTTTTGCGACGGAGTCACCTAGTGCAG” was tested, and the binding signal was 4120 fluorescence intensity (a.u.).
In the case of “CTAATTATACTTAAATCATAATGTTATAATATATGGATAACGGAGTCACCTAGTGCAG”, the binding signal is reported as 15600 fluorescence intensity (a.u.).
For “CATCCATCAATCCCTGAATGCACACAAGCTGCATATCTGCCGGAGTCACCTAGTGCAG”, the binding signal was 4610 fluorescence intensity (a.u.).
For “GTTAACCGCCAATTAAAGCTTCCGATCGATTCACATCCTTCGGAGTCACCTAGTGCAG”, the binding signal was 19900 fluorescence intensity (a.u.).
“CACTAATTATTATTAGTTAATTAAGTAATTAAGCACTAGCCGGAGTCACCTAGTGCAG” was tested, and the binding signal was 41300 fluorescence intensity (a.u.).
For “AACCCATGATTTTGTTACAGCAAACATAAGGTTGAATCTTCGGAGTCACCTAGTGCAG”, the binding signal was 4010 fluorescence intensity (a.u.).
With “ATACGGGTTGATTGGGACACCAGTACACCACTGGTGCACCCGGAGTCACCTAGTGCAG” the binding signal was 20100 fluorescence intensity (a.u.).
“CAGTGGATGATTAATATTGATTAATTATTATAATTGTTTTCGGAGTCACCTAGTGCAG” was tested, and the binding signal was 39500 fluorescence intensity (a.u.).
“GTGACCATGACTAATTACCGCAATGAAAACCAAAACCGAGCGGAGTCACCTAGTGCAG” was tested, and the binding signal was 9180 fluorescence intensity (a.u.).
For “AATAAAATAGCAGTTAAATGAATGAACAACAGTCAAACTGCGGAGTCACCTAGTGCAG”, the binding signal was 3350 fluorescence intensity (a.u.).
“ATTCATGATGGATTTAATGATGAAATCAATCGGATGTTACCGGAGTCACCTAGTGCAG” was tested, and the binding signal was 15900 fluorescence intensity (a.u.).
“GGGCGATCATCTATAAATTAACAACGGCCGAGATATAGACCGGAGTCACCTAGTGCAG” was tested, and the binding signal was 6120 fluorescence intensity (a.u.).
For “CCCTAATTAACTATACTCTACTAATTAAGCTACCCAACCACGGAGTCACCTAGTGCAG”, the binding signal was 39900 fluorescence intensity (a.u.).
With “ATAATTGACTTATTATACTACTTCCTCCGTTTCACAATGTCGGAGTCACCTAGTGCAG” the binding signal was 29900 fluorescence intensity (a.u.).
“GCAGAATAATTAAACCATAGACACATACATAATAATACCACGGAGTCACCTAGTGCAG” was tested, and the binding signal was 6120 fluorescence intensity (a.u.).
For “GATATTACAAAAGTCCTAATTGATTTCTTTTACATTGATTCGGAGTCACCTAGTGCAG”, the binding signal was 7300 fluorescence intensity (a.u.).
“TCCAATTAAGGAGCAATTAAGGAGGAGAAGGAAGGGAAAACGGAGTCACCTAGTGCAG” was tested, and the binding signal was 4860 fluorescence intensity (a.u.).
In the case of “GTCGAAATTAGCTAATACATATGTATTGGGTTAGGCATGGCGGAGTCACCTAGTGCAG”, the binding signal is reported as 9300 fluorescence intensity (a.u.).
For “GTTGTAATTAAATCTTTACAACAAGATCAGACATGATTATCGGAGTCACCTAGTGCAG”, the binding signal was 6600 fluorescence intensity (a.u.).
With “AAAACTAATTACACAGTTTGCATGAAAATCGCGAGACGAACGGAGTCACCTAGTGCAG” the binding signal was 10500 fluorescence intensity (a.u.).
With “TATAGCTCCTTATTGACAGGATGATTTCTTGCCTCGGACACGGAGTCACCTAGTGCAG” the binding signal was 8700 fluorescence intensity (a.u.).
In the case of “TTGCTAGATGATAAAACATGATTAATATTTTATACGTGACCGGAGTCACCTAGTGCAG”, the binding signal is reported as 8500 fluorescence intensity (a.u.).
“ATCATCCTGATTAGTGCAATTTACCATCATTATTGTGTTGCGGAGTCACCTAGTGCAG” was tested, and the binding signal was 25900 fluorescence intensity (a.u.).
“AATAAATAAATTTAATATCGAAGTATTTGGCAAATTTCCCCGGAGTCACCTAGTGCAG” was tested, and the binding signal was 9100 fluorescence intensity (a.u.).
With “TAACTTATTAATTGAACTTGTTAGACATAAGGGGTGACAACGGAGTCACCTAGTGCAG” the binding signal was 16400 fluorescence intensity (a.u.).
For “GGTGTTTGATTGGAGAGATTAAAGTGGGGCTAAACTTTATCGGAGTCACCTAGTGCAG”, the binding signal was 19300 fluorescence intensity (a.u.).
“TCTAGATTATGATCAAATAAGATAGGAGCACCACCAAATACGGAGTCACCTAGTGCAG” was tested, and the binding signal was 3520 fluorescence intensity (a.u.).
In the case of “CTTGAAGTGGCTAATTAACAAGTTTGTTTTCAGTTAGCATCGGAGTCACCTAGTGCAG”, the binding signal is reported as 7120 fluorescence intensity (a.u.).
“CTTTTGAGCCTAATTAGTCCATGATTAGTTATAAGTGCTACGGAGTCACCTAGTGCAG” was tested, and the binding signal was 19200 fluorescence intensity (a.u.).
With “GCAATCCTAACAGGCCCATTTAATTTTGAAGCCTGGTCCACGGAGTCACCTAGTGCAG” the binding signal was 4290 fluorescence intensity (a.u.).
“TCCATATGTCAATTGAGTCTTTTACTGAAGAATCCTAGGACGGAGTCACCTAGTGCAG” was tested, and the binding signal was 3300 fluorescence intensity (a.u.).
For “CATGATTAGCAGTTTAGCGCCATTACTATTCCTAGCACAACGGAGTCACCTAGTGCAG”, the binding signal was 45100 fluorescence intensity (a.u.).
With “TTAGCCTAATTAGTCCATGATTAGCCGTAAGTGTCACAGTCGGAGTCACCTAGTGCAG” the binding signal was 28900 fluorescence intensity (a.u.).
“TTAAAATTAAATTACGGCATCATCAAGCCTATATATCACCCGGAGTCACCTAGTGCAG” was tested, and the binding signal was 19700 fluorescence intensity (a.u.).
In the case of “ATATAAATTAATATGTGATAGATCACATGAACATTTCATACGGAGTCACCTAGTGCAG”, the binding signal is reported as 42700 fluorescence intensity (a.u.).
“TTTGACAGAGCTTAGTGGAGACGCCATAGCCATGCACCATCGGAGTCACCTAGTGCAG” was tested, and the binding signal was 4650 fluorescence intensity (a.u.).
With “ATTACGTAATTAATTAAAATACAAATTTCAGCATCCTTACCGGAGTCACCTAGTGCAG” the binding signal was 42300 fluorescence intensity (a.u.).
In the case of “TTTAATTGAACTTGAGTGGTCCAGGTATTAAATGTGGGTCCGGAGTCACCTAGTGCAG”, the binding signal is reported as 52200 fluorescence intensity (a.u.).
In the case of “ATTATGTTTATTGATTGGACGGAAAATTTCCCATTTTAATCGGAGTCACCTAGTGCAG”, the binding signal is reported as 29300 fluorescence intensity (a.u.).
In the case of “CCTGCATCATCAATCTGCCTACATATCGATCGATTGATCTCGGAGTCACCTAGTGCAG”, the binding signal is reported as 4630 fluorescence intensity (a.u.).
